Measured values published in the supplement of paper PMC4723716.
± gives the uncertainty stated by the source. The full ranking holds about 9,900 compounds; the median of “viability index relative to DMSO control” is about 1, and the lowest 2% start at about 0.85. This is one part of the list.

Tested on: Plasmodium falciparum NF54 stage V gametocytes
Test: viability index relative to DMSO control (fraction); higher = less gametocyte killing
Conditions: 2.5 µM, incubation time: 72 h
Method in brief: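 Compound at 2.5 µM was incubated for 72 hr at 37°C under low oxygen with P. falciparum NF54 stage V gametocytes (0.75% gametocytemia, 1.25% hematocrit, 10 µl, serum-free screening medium) in 1,536-well plates. Staining used 3 µl of 2.5 µM MitoTracker Red CMXRos plus 0.13% saponin for one to two hours, and red particles of 20–70 µm2 were counted in one imaged field per well. Each viability index is that count relative to the plate mean of solvent-only wells.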

[1] = library set: Broad Institute DOS
[2] = library set: Broad Institute Blood Stage

With `CCC(=O)Nc1ccc2c(c1)OC[C@H](C)N(Cc1ccccc1)C[C@H](C)[C@@H](OC)CN(C)C2=O` the viability index [1] was 1.037 ± 0.0097.

`CNC(=O)C[C@H]1CC[C@@H]2[C@H](COC[C@H](O)CN2Cc2ccccc2F)O1` was tested, and the viability index [1] was 1.09 ± 0.057.

For `COCCNC(=O)C[C@H]1CC[C@@H]2[C@H](COc3ccc(NS(=O)(=O)c4ccc(Cl)cc4)cc3C(=O)N2C)O1`, the viability index [1] was 1.17 ± 0.058.

In the case of `CCCC#Cc1ccc([C@@H]2[C@@H](CO)N(C(=O)CN3CCOCC3)[C@H]2C#N)cc1`, the viability index [1] is reported as 1.1 ± 0.13.

For `C/C=C/c1cnc2c(c1)C(=O)N([C@H](C)CO)C[C@@H](C)[C@H](CN(C)CC1CCOCC1)O2`, the viability index [1] was 1.04 ± 0.027.

Work on `COc1ccc2c3c([nH]c2c1)[C@H](CO)N(C[C@]31CN(Cc2cccnc2)C1)C(=O)CC1CC1` yielded a viability index [1] of 1.06 ± 0.061.

`C[C@@H]1CCCCO[C@H](CN(C)C(=O)Cc2ccccc2)[C@H](C)CN([C@H](C)CO)C(=O)c2cc(NS(C)(=O)=O)ccc2O1` gave a viability index [1] of 1.11 ± 0.053.

`O=C(C[C@@H]1CC[C@H]2[C@@H](COC[C@@H](O)CN2C(=O)Nc2cccc(F)c2)O1)NCCCN1CCOCC1` was tested, and the viability index [1] was 1.01 ± 0.0084.

In the case of `O=C(Nc1cc(F)ccc1F)N[C@@H]1CC[C@@H](CCn2cc(C3CCCCC3)nn2)O[C@H]1CO`, the viability index [1] is reported as 1.1 ± 0.046.

For `CN1C(=O)c2cc(NC(=O)Nc3ccccc3F)ccc2OC[C@@H]2O[C@H](CC(=O)NCCc3ccncc3)CC[C@H]21`, the viability index [1] was 0.9776 ± 0.008.

`CS(=O)(=O)N1C[C@@H]2N[C@H](C1)[C@@H]2c1ccc(-c2ccccc2)cc1` showed a viability index [1] of 0.706 ± 0.03.

In the case of `CN1C(=O)c2cc(NC(=O)c3ccc4c(c3)OCO4)ccc2OC[C@H]2O[C@@H](CC(=O)O)CC[C@@H]21`, the viability index [1] is reported as 1.11 ± 0.071.

`CN1C(=O)c2cc(NC(=O)Cc3cccs3)ccc2OC[C@H]2O[C@@H](CC(=O)NCc3ccc(-c4ccccc4)cc3)CC[C@@H]21` gave a viability index [1] of 1.07 ± 0.054.

`CNC[C@@H]1Oc2cc(C#Cc3ccccc3OC)ccc2S(=O)(=O)N([C@@H](C)CO)C[C@H]1C` gave a viability index [1] of 0.886 ± 0.063.

With `COc1cccc(NC(=O)N2C[C@@H](O)COC[C@H]3O[C@@H](CC(=O)N(C)C)CC[C@@H]32)c1` the viability index [1] was 1.04 ± 0.02.

`C/C=C/c1ccc([C@H]2[C@H]3CN(C(=O)c4ccncc4)CC(=O)N3[C@H]2CO)cc1` showed a viability index [1] of 0.976 ± 0.087.

Work on `Cc1noc(C)c1NC(=O)N1C[C@@H](O)COC[C@@H]2O[C@H](CC(=O)NCC3CC3)CC[C@H]21` yielded a viability index [1] of 1.06 ± 0.02.

With `COc1ccc(S(=O)(=O)N2CC[C@@H]3[C@@H](CO)Nc4ccc(Br)cc4[C@@H]32)cc1` the viability index [1] was 0.97489 ± 0.00036.

`COc1ccc(NC(=O)N2C[C@H](O)COC[C@@H]3O[C@@H](CC(=O)NCc4ccncn4)CC[C@H]32)cc1` was tested, and the viability index [1] was 1.076 ± 0.0021.

In the case of `COc1cccc(S(=O)(=O)N2C[C@@H](O)COC[C@H]3O[C@H](CC(=O)N4CCN(c5ccccc5)CC4)CC[C@@H]32)c1`, the viability index [1] is reported as 1.07 ± 0.066.

Compound `CCS(=O)(=O)N1C[C@@]2(C1)CN([C@H](CO)c1[nH]c3cc(OC)ccc3c21)C(=O)Cc1ccccn1` has a viability index [1] of 0.986 ± 0.062.

For `C[C@@H]1CN([C@@H](C)CO)C(=O)c2cc(NC(=O)Cc3ccccc3)ccc2O[C@@H](C)CCCCO[C@H]1CN(C)Cc1ccncc1`, the viability index [1] was 1.1 ± 0.063.

`COc1cccc(C#Cc2ccc([C@H]3[C@@H](CO)N4C(=O)CN(C(=O)Cc5ccccc5)C[C@H]34)cc2)c1` gave a viability index [2] of 0.778 ± 0.047.

In the case of `COc1cccc(NC(=O)N2CC(=O)N3[C@@H](CO)[C@H](c4ccc(C5=CCCCC5)cc4)[C@@H]3C2)c1`, the viability index [1] is reported as 1.05 ± 0.037.

For `COc1ccc2c3c([C@@H](CO)N(C[C@]33CCN(CC3)C(=O)c3ccncc3)C(=O)C3CCOCC3)n(C)c2c1`, the viability index [1] was 1.02 ± 0.022.

For `N#C[C@H]1[C@H](c2ccc(C3=CCCCC3)cc2)[C@H](CO)N1C(=O)CN1CCOCC1`, the viability index [1] was 1.13 ± 0.046.

`Cc1noc(C)c1NC(=O)Nc1ccc2c(c1)C(=O)N([C@@H](C)CO)C[C@@H](C)[C@@H](CN(C)Cc1ccc3c(c1)OCO3)OCCCC[C@H](C)O2` gave a viability index [1] of 1.14 ± 0.22.

Work on `CC(C)C(=O)Nc1ccc2c(c1)C(=O)N(C)[C@H]1CC[C@H](CC(=O)NCCc3ccccc3)O[C@@H]1CO2` yielded a viability index [1] of 1.1 ± 0.11.

Compound `COc1cccc(S(=O)(=O)Nc2ccc3c(c2)C(=O)N(C)[C@@H]2CC[C@@H](CC(=O)NCC4CCCCC4)O[C@H]2CO3)c1` has a viability index [1] of 1.06 ± 0.046.

`O=C(Nc1ccc(F)cc1)N1CC(=O)N2[C@@H](CO)[C@@H](c3ccc(-c4cccc(F)c4)cc3)[C@@H]2C1` showed a viability index [1] of 0.978 ± 0.032.

For `CN(C)C(=O)C[C@@H]1C[C@H]2c3cc(NC(=O)Nc4ccc(F)cc4)ccc3O[C@H]2[C@@H](CO)O1`, the viability index [1] was 1.076 ± 0.0015.

In the case of `C[C@@H]1CN([C@H](C)CO)C(=O)c2cc(NC(=O)C3CCCCC3)ccc2O[C@H]1CN(C)Cc1ccc2c(c1)OCO2`, the viability index [1] is reported as 1.03 ± 0.0061.

Work on `CC(C)NC(=O)N1CC2(C1)[C@@H](c1ccccc1)[C@@H](CO)N2C(=O)C1CCOCC1` yielded a viability index [1] of 1.06 ± 0.022.

With `O=C(C[C@@H]1C[C@@H]2c3cc(NC(=O)c4ccc5c(c4)OCO5)ccc3O[C@@H]2[C@H](CO)O1)NCc1ccc(Oc2ccccc2)cc1` the viability index [1] was 1.12 ± 0.15.

With `Cc1noc(C)c1NC(=O)N(C)C[C@@H]1OCCCC[C@H](C)Oc2ccc(NC(=O)Nc3ccc(C(F)(F)F)cc3)cc2C(=O)N([C@@H](C)CO)C[C@H]1C` the viability index [1] was 1.08 ± 0.089.

`CN1C(=O)c2cc(NC(=O)Cc3cccs3)ccc2OC[C@@H]2O[C@@H](CC(=O)N[C@H]3CCN(Cc4ccccc4)C3)CC[C@@H]21` was tested, and the viability index [1] was 1.12 ± 0.064.

Work on `Cc1cc(C(=O)Nc2cccc3c2O[C@H](CN(C)C)[C@@H](C)CN([C@H](C)CO)C3=O)n(C)n1` yielded a viability index [1] of 1.03 ± 0.024.

`O=C(O)[C@H]1[C@H](CO)[C@H]2Cn3c(ccc(/C=C/c4ccccc4)c3=O)[C@H]2N1Cc1ccc2c(c1)OCO2` showed a viability index [1] of 0.93 ± 0.002.

In the case of `CO[C@@H](C(=O)N(C)C[C@@H]1OCc2ccccc2-c2ccccc2C(=O)N([C@H](C)CO)C[C@H]1C)c1ccccc1`, the viability index [1] is reported as 0.961 ± 0.13.

`C[C@@H]1CN([C@@H](C)CO)C(=O)c2c(c3ccccc3n2C)-c2ccccc2CO[C@@H]1CN(C)S(=O)(=O)c1ccc([N+](=O)[O-])cc1` was tested, and the viability index [1] was 0.998 ± 0.098.

Compound `COc1ccccc1CN1C[C@@H](C)[C@H](OC)CN(C)C(=O)c2ccc(NC(=O)Nc3ccccc3OC)cc2OC[C@H]1C` has a viability index [2] of 0.855 ± 0.025.

In the case of `CCCNC(=O)N1C[C@H](C)[C@@H](OC)CN(C)C(=O)c2ccc(NC(=O)CC)cc2OC[C@@H]1C`, the viability index [1] is reported as 1.04 ± 0.033.

Compound `N#C[C@H]1[C@H](c2ccccc2)[C@@H](CO)N1C(=O)c1ccccc1F` has a viability index [1] of 1.09 ± 0.072.

Compound `CCN(C[C@@H]1[C@@H](c2ccc(-c3cccnc3)cc2)[C@H](CO)N1C(C)=O)C(C)=O` has a viability index [1] of 0.956 ± 0.12.
